According to PMC7261414, “A complex comprising C15ORF41 and Codanin-1: the products of two genes mutated in congenital dyserythropoietic anaemia type I (CDA-I)” (Biochemical Journal, 2020):
No constants are given. Whether binding was seen depends on the method and setting. In cells and extracts the contact can be indirect. Some entries that bind do so weakly or less than the wild type. Where a sequence is shown, tags or fusion partners need not be part of it.

B1: RFP-Codanin-1 Q1000-S1227 (bicistronic plasmid), the C-terminal 227 residues of Codanin-1 (domain or fragment, UniProt Q8IWY9 1000-1227)
chain: QGPEPAARGERRGCSRACEHHAPLPSHLISEIKDVLSLAVGPRDPDEGVSPEHLEQLLGQLGQTLRCRQFLCPPAEQHLAKCSVELASLLVADQIPILGPPAQYRLERGQARRLLHMLLSLWKEDFQGPVPLQLLLSPRNVGLLADTRPREWDLLLFLLRELVEKGLMGRMEIEACLGSLHQAQWPGDFAEELATLSNLFLAEPHLPEPQLRACELVQPNRGTVLAQS
B2: RFP-Codanin-1 P800-S1227 (bicistronic plasmid) (domain or fragment, UniProt Q8IWY9 800-1227)
chain: PYIGELRKLLASWVSGSSGRSGGFMRKITPTTTTSLGAQPSQTSQGLQAQLAQAFFHNQPPSLRRTVEFVAERIGSNCVKHIKATLVADLVRQAESLLQEQLVTQGEEGGDPAQLLEILCSQLCPHGAQALALGREFCQRKSPGAVRALLPEETPAAVLSSAENIAVGLATEKACAWLSANITALIRREVKAAVSRTLRAQGPEPAARGERRGCSRACEHHAPLPSHLISEIKDVLSLAVGPRDPDEGVSPEHLEQLLGQLGQTLRCRQFLCPPAEQHLAKCSVELASLLVADQIPILGPPAQYRLERGQARRLLHMLLSLWKEDFQGPVPLQLLLSPRNVGLLADTRPREWDLLLFLLRELVEKGLMGRMEIEACLGSLHQAQWPGDFAEELATLSNLFLAEPHLPEPQLRACELVQPNRGTVLAQS
B3: RFP-Codanin-1 G600-S1227 (bicistronic plasmid) (domain or fragment, UniProt Q8IWY9 600-1227)
chain: GLALPQHEPNDEDGESDVDWQGERKQFAVVLLSLRLLAKFLGFVAFLPYRGPEPPPTGELQDSILALRSQVPPVLDVRTLLQRGLQARRAVLTVPWLVEFLSFADHVVPLLEYYRDIFTLLLRLHRSLVLSQESEGKMCFLNKLLLLAVLGWLFQIPTVPEDLFFLEEGPSYAFEVDTVAPEHGLDNAPVVDQQLLYTCCPYIGELRKLLASWVSGSSGRSGGFMRKITPTTTTSLGAQPSQTSQGLQAQLAQAFFHNQPPSLRRTVEFVAERIGSNCVKHIKATLVADLVRQAESLLQEQLVTQGEEGGDPAQLLEILCSQLCPHGAQALALGREFCQRKSPGAVRALLPEETPAAVLSSAENIAVGLATEKACAWLSANITALIRREVKAAVSRTLRAQGPEPAARGERRGCSRACEHHAPLPSHLISEIKDVLSLAVGPRDPDEGVSPEHLEQLLGQLGQTLRCRQFLCPPAEQHLAKCSVELASLLVADQIPILGPPAQYRLERGQARRLLHMLLSLWKEDFQGPVPLQLLLSPRNVGLLADTRPREWDLLLFLLRELVEKGLMGRMEIEACLGSLHQAQWPGDFAEELATLSNLFLAEPHLPEPQLRACELVQPNRGTVLAQS
B4: RFP-Codanin-1 C400-S1227 (bicistronic plasmid) (domain or fragment, UniProt Q8IWY9 400-1227)
chain: CFSPALQGRLRAAYEGSVAKVSLVMPPSTQAVSFQPETDNRANFSSDRAFHTFKKQRDVFYEVLREWEDHHEEPGWDFEKGLGSRIRAMMGQLSAACSHSHFVRLFQKQLLQMCQSPGGAGGTVLGEAPDVLSMLGADKLGRLWRLQERLMAPQSSGGPCPPPTFPGCQGFFRDFILSASSFQFNQHLMDSLSLKIQELNGLALPQHEPNDEDGESDVDWQGERKQFAVVLLSLRLLAKFLGFVAFLPYRGPEPPPTGELQDSILALRSQVPPVLDVRTLLQRGLQARRAVLTVPWLVEFLSFADHVVPLLEYYRDIFTLLLRLHRSLVLSQESEGKMCFLNKLLLLAVLGWLFQIPTVPEDLFFLEEGPSYAFEVDTVAPEHGLDNAPVVDQQLLYTCCPYIGELRKLLASWVSGSSGRSGGFMRKITPTTTTSLGAQPSQTSQGLQAQLAQAFFHNQPPSLRRTVEFVAERIGSNCVKHIKATLVADLVRQAESLLQEQLVTQGEEGGDPAQLLEILCSQLCPHGAQALALGREFCQRKSPGAVRALLPEETPAAVLSSAENIAVGLATEKACAWLSANITALIRREVKAAVSRTLRAQGPEPAARGERRGCSRACEHHAPLPSHLISEIKDVLSLAVGPRDPDEGVSPEHLEQLLGQLGQTLRCRQFLCPPAEQHLAKCSVELASLLVADQIPILGPPAQYRLERGQARRLLHMLLSLWKEDFQGPVPLQLLLSPRNVGLLADTRPREWDLLLFLLRELVEKGLMGRMEIEACLGSLHQAQWPGDFAEELATLSNLFLAEPHLPEPQLRACELVQPNRGTVLAQS
B5: RFP-Codanin-1 T200-S1227 (bicistronic plasmid) (domain or fragment, UniProt Q8IWY9 200-1227)
chain: TPVSEERSLSKPKTCFTSPPISCVPSSQPSALDTSPWGLGLPPGCRSLQEEREMLRKERSKQLQQSPTPTCPTPELGSPLPSRTGSLTDEPADPARVSSRQRLELVALVYSSCIAENLVPNLFLELFFVFQLLTARRMVTAKDSDPELSPAVLDSLESPLFQSIHDCVFFAVQVLECHFQVLSNLDKGTLKLLAENERLLCFSPALQGRLRAAYEGSVAKVSLVMPPSTQAVSFQPETDNRANFSSDRAFHTFKKQRDVFYEVLREWEDHHEEPGWDFEKGLGSRIRAMMGQLSAACSHSHFVRLFQKQLLQMCQSPGGAGGTVLGEAPDVLSMLGADKLGRLWRLQERLMAPQSSGGPCPPPTFPGCQGFFRDFILSASSFQFNQHLMDSLSLKIQELNGLALPQHEPNDEDGESDVDWQGERKQFAVVLLSLRLLAKFLGFVAFLPYRGPEPPPTGELQDSILALRSQVPPVLDVRTLLQRGLQARRAVLTVPWLVEFLSFADHVVPLLEYYRDIFTLLLRLHRSLVLSQESEGKMCFLNKLLLLAVLGWLFQIPTVPEDLFFLEEGPSYAFEVDTVAPEHGLDNAPVVDQQLLYTCCPYIGELRKLLASWVSGSSGRSGGFMRKITPTTTTSLGAQPSQTSQGLQAQLAQAFFHNQPPSLRRTVEFVAERIGSNCVKHIKATLVADLVRQAESLLQEQLVTQGEEGGDPAQLLEILCSQLCPHGAQALALGREFCQRKSPGAVRALLPEETPAAVLSSAENIAVGLATEKACAWLSANITALIRREVKAAVSRTLRAQGPEPAARGERRGCSRACEHHAPLPSHLISEIKDVLSLAVGPRDPDEGVSPEHLEQLLGQLGQTLRCRQFLCPPAEQHLAKCSVELASLLVADQIPILGPPAQYRLERGQARRLLHMLLSLWKEDFQGPVPLQLLLSPRNVGLLADTRPREWDLLLFLLRELVEKGLMGRMEIEACLGSLHQAQWPGDFAEELATLSNLFLAEPHLPEPQLRACELVQPNRGTVLAQS
B6: RFP-Codanin-1 M1-T200 (bicistronic plasmid) (domain or fragment, UniProt Q8IWY9 1-200)
chain: MAAVLESLLREEVSVAAVVRWIARSTQGSEDNAGEAAALSSLRALRKEFVPFLLNFLREQSSRVLPQGPPTPAKTPGASAALPGRPGGPPRGSRGARSQLFPPTEAQSTAAEAPLARRGGRRRGPGPARERGGRGLEEGVSGESLPGAGGRRLRGSGSPSRPSLTLSDPPNLSNLEEFPPVGSVPPGPTGTKPSRRINPT
B7: RFP-Codanin-1 M1-C400 (bicistronic plasmid) (domain or fragment, UniProt Q8IWY9 1-400)
chain: MAAVLESLLREEVSVAAVVRWIARSTQGSEDNAGEAAALSSLRALRKEFVPFLLNFLREQSSRVLPQGPPTPAKTPGASAALPGRPGGPPRGSRGARSQLFPPTEAQSTAAEAPLARRGGRRRGPGPARERGGRGLEEGVSGESLPGAGGRRLRGSGSPSRPSLTLSDPPNLSNLEEFPPVGSVPPGPTGTKPSRRINPTPVSEERSLSKPKTCFTSPPISCVPSSQPSALDTSPWGLGLPPGCRSLQEEREMLRKERSKQLQQSPTPTCPTPELGSPLPSRTGSLTDEPADPARVSSRQRLELVALVYSSCIAENLVPNLFLELFFVFQLLTARRMVTAKDSDPELSPAVLDSLESPLFQSIHDCVFFAVQVLECHFQVLSNLDKGTLKLLAENERLLC

Each binder was assayed against T1, GFP-C15ORF41 (full-length; aa1-281) from the bicistronic plasmids (human) (UniProt Q9Y2V0) (assay: co-IP; U2OS cells transiently transfected with bicistronic vectors co-expressing GFP-C15ORF41 and full-length or truncated RFP-Codanin-1; GFP-Trap beads; two-colour western blotting).
T1 sequence: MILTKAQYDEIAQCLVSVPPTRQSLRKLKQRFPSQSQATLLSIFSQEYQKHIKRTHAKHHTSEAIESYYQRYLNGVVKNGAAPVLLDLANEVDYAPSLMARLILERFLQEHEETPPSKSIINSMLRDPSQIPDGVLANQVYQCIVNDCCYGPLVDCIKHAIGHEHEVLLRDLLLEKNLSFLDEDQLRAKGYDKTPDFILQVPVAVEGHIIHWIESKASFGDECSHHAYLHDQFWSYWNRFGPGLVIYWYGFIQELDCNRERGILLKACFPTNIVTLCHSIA

| Binder | binding |
| --- | --- |
| B1 | binds |
| B2 | binds |
| B3 | binds |
| B4 | binds |
| B5 | binds |
| B6 | no binding |
| B7 | no binding |
